Experimental data from the supplement of paper PMC3724861.
Some of the results follow.

System: T1, Caupolican (Caup) homeodomain DNA-binding domain
T1 sequence: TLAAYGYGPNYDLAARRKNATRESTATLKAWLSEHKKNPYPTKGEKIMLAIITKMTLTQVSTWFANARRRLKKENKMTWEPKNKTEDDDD
Assay: PBM E-score (8-mer, recovered from the published 9-mer minima) (E-score (dimensionless, -0.5 to 0.5)); Drosophila protein; higher = stronger relative binding preference, active = 0.31 or more
Outline: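 Caup's homeodomain DNA-binding domain (residues 214-303) was produced by in vitro transcription and translation and applied at 100 nM to custom-designed protein binding microarrays. Each value is an enrichment score giving relative binding preference for a short DNA word; higher means stronger. Published 9-mer scores were the minimum of their two constituent 8-mer scores, and the 8-mer values were recovered from those minima. A cutoff of 0.31 marks candidate binding sequences.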

Sequence	PBM E-score
AGGTCACA	inactive: 0.0145
GCGGTCAC	inactive: -0.235
AACAACGA	inactive: 0.279
CAGGGCGG	inactive: -0.246
AGGACCTA	inactive: -0.0797
TAGGCGAA	≥ -0.00406
CCATGTTA	active: 0.406
AGCGATAG	inactive: -0.151
CCTCGTAA	inactive: 0.11
ACGAGACC	inactive: 0.0801
CGCAGGCG	inactive: -0.267
CCAGTTTA	inactive: 0.0149
AGCGTCGG	inactive: -0.132
ACAGAGAG	inactive: -0.00515
AACTTCTA	inactive: 0.0182
CGACGCAA	inactive: -0.132
TCGCCGCA	inactive: -0.147
AAGAGGGA	inactive: -0.0657
ATAGCAAC	inactive: 0.118
AGAGACGG	inactive: -0.108
AGGTGTGA	inactive: 0.00706
AGTCTGTC	inactive: 0.0664
ACTAGTGG	inactive: 0.106
AAACCTTT	inactive: 0.00249

Sequence	PBM E-score
CATGTCGA	active: 0.412
TAATTTGA	inactive: 0.117
TACTTATA	inactive: 0.0399
AAAGATCT	inactive: -0.0373
ATCTCGCC	inactive: -0.197
TCCGGCCA	inactive: -0.242
ATACGTTG	inactive: 0.106
CGCATCAC	inactive: -0.118
CGGCGGCA	inactive: -0.253
CGGCAGTC	inactive: -0.0979
TATAGCCA	inactive: 0.0208
CCAGTTCC	inactive: -0.2
AAGCTAGT	inactive: 0.0834
AACCAATT	inactive: 0.0783
GCTGTCCA	inactive: 0.0718
TCAGTCCA	inactive: -0.00933
CTTTGAAA	inactive: 0.0665
AAGTCGAA	inactive: 0.00758
CGCTGCGC	inactive: -0.23
ATCAATAA	inactive: 0.148
AACCGCTA	inactive: -0.0271
CGTCAAAC	inactive: 0.0102
CCCATACC	inactive: -0.1
GAACATCC	inactive: 0.295

Sequence	PBM E-score
AGCGCAAA	inactive: -0.0105
AACTAGAT	inactive: 0.0811
GACGGCGC	inactive: -0.257
GCAGTGAC	inactive: -0.0444
GGCATTCA	inactive: -0.116
GGAAAAAC	inactive: 0.112
GTGCTAGA	inactive: 0.0623
ACACTAAG	inactive: 0.0518
TCTATGCA	≥ 0.126
GACCACGA	inactive: -0.0237
ACGAAGCC	inactive: -0.195
ATGACGTG	inactive: 0.102
AATGCTGC	inactive: 0.0331
CTGTACCA	inactive: 0.186
CACGCGTA	inactive: 0.1
AAGTGTGA	inactive: 0.0589
GCCACGCA	inactive: -0.203
ATCTGGAA	inactive: 0.0226
CAAGGGGG	inactive: -0.227
CCGTACAC	inactive: 0.199
AGACCAGG	inactive: -0.092
ATAGTAAT	inactive: 0.172
AGTTACAA	inactive: 0.295
TCCTTACA	inactive: 0.249
